Measured values reported in US20260327262A1, “BICYCLIC PEPTIDE LIGANDS SPECIFIC FOR EPHA2” (BicycleTx Limited, priority 2019, published 2026).

Biological target: human EphA2 (Homo sapiens, UniProt P29317)
Assay: Competition Binding Assay (fluorescence polarisation, competition with fluorescent tracer BCY90)
Experimental: Peptides without a fluorescent tag were tested in competition with a peptide with a fluorescent tag and a known Kd.
Peptides were diluted to an appropriate concentration in assay buffer as described in the direct binding assay with a maximum of 5% DMSO, then serially diluted 1 in 2. […] Measurements were conducted, however the gain was determined prior to the first measurement. Data analysis was in Systat Sigmaplot version 12.0 where the mP values were fit to a user defined cubic equation to generate a Ki value: • f=ymax+(ymin−ymax)/Lig*((Lig*((2*((Klig+Kcomp+Lig+Comp−Prot*c)^2−3*(Kcomp*(Lig−Prot*c)+Klig*(Comp−Prot*c)+Klig*Kcomp))^0.5*COS(ARCCOS((−2*(Klig+Kcomp+Lig+Comp−Prot*c)^3+9*(Klig+Kcomp+Lig+Comp−Prot*c)*(Kcomp*(Lig−Prot*c)+Klig*(Comp−Prot*c)+Klig*Kcomp)−27*(−1*Klig*Kcomp*Prot*c))/(2*((((Klig+Kcomp+Lig+Comp−Prot*c)^2−3*(Kcomp*(Lig−Prot*c)+Klig*(Comp−Prot*c)+Klig*Kcomp))^3)^0.5)))/3))−(Klig+Kcomp+Lig+Comp−Prot*c)))/((3*Klig)+((2*((Klig+Kcomp+Lig+Comp−Prot*c)^2−3*(Kcomp*(Lig−Prot*c)+Klig*(Comp−Prot*c)+Klig*Kcomp))^0.5*COS(ARCCOS((−2*(Klig+Kcomp+Lig+Comp−Prot*c)^3+9*(Klig+Kcomp+Lig+Comp−Prot*c)*(Kcomp*(Lig−Prot*c)+Klig*(Comp−Prot*c)+Klig*Kcomp)−27*(−1*Klig*Kcomp*Prot*c))/(2*((((Klig+Kcomp+Lig+Comp−Prot*c)^2−3*(Kcomp*(Lig−Prot*c)+Klig*(Comp−Prot*c)+Klig*Kcomp))^3)^0.5)))/3))−(Klig+Kcomp+Lig+Comp−Prot*c)))). […]

Sequence of human EphA2 (P29317 24-976): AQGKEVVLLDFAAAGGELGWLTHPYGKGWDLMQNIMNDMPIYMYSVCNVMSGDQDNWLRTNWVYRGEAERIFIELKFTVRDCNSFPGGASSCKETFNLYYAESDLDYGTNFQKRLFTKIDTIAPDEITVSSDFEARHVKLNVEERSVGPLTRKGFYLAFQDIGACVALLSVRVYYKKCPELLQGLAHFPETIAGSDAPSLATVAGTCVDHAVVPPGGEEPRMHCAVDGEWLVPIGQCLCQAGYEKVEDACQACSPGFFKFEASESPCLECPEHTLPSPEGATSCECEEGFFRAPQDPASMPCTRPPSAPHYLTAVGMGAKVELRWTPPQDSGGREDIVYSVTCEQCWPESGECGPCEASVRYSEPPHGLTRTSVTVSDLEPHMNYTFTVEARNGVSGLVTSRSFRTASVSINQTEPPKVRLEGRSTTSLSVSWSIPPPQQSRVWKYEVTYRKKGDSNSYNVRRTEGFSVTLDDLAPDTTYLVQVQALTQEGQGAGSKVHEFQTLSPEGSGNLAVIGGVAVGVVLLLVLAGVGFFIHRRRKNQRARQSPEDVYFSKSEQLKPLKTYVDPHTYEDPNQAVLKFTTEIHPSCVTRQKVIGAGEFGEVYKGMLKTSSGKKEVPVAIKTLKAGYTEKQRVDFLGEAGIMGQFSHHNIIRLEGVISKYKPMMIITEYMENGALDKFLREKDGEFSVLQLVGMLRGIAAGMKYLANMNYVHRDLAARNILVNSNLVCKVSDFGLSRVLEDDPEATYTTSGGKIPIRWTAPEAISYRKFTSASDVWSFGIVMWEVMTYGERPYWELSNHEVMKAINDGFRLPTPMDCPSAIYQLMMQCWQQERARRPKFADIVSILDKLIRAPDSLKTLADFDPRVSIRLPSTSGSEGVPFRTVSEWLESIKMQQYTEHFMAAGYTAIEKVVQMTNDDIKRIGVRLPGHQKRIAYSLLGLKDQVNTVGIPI

Substance | Ki
A-[HArg]-D-Ci[HyP][Cba]VNPLCiiLEP[dD]WTCiii [BCY12863] | 5.84 nM
Ci[HyP][Cba]VNPLCiiL[3,3-DPA]P[dD]WTCiii-[dA] [BCY12865] | 0.857 nM
